Data taken from the supplement of paper PMC11417369.
± gives the standard deviation of the averaged measurements. Some of the results follow.

These sequences were tested on PfAP2-I AP2 domain 3 (GST-tagged) (assay: gcPBM binding intensity (ln(normalized median fluorescence intensity)); higher = stronger DNA binding).
Summary of the method: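 Using an Agilent 4 × 180k array, primer-extended double-stranded 36-bp intergenic genomic probes and negative controls were exposed for 1 h to GST-fused P. falciparum DNA-binding domains expressed in E. coli. Binding was carried out in 1× PBS with 1% milk, 0.2 mg/ml BSA, 0.5% salmon testes DNA and 0.03% Triton X-100, and protein was detected with Alexa488 anti-GST antibody and a 488 nm scan. Binding intensity is the highest Masliner-normalised natural-log median intensity across replicate spots of either probe orientation.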

Sequence	gcPBM binding intensity (ln)
ACAGAAAATAAAATTTGTACATATATAGAATAAAGA [XGTACX_site3014]	7.88 ± 0.69
ATAAAACATAAAAATCGTACAAAGGAGGATATAAGG [XGTACX_site420]	8.37 ± 0.69
AAAATGATGTTAATTACACACATCATCTCATAAACA [CACACA_site3017]	7.57 ± 0.54
TGGAGGTCAGTTCACAGTACCCAGAAAACTCTACGA [XGTACX_site2561]	7.43 ± 0.37
ATTATTTATTATTTCTGTACGTATAAAAATAACATT [XGTACX_site1671]	8.2 ± 0.37
TAACATTATATATATTGTACATAGTAAATATTATAT [XGTACX_site5421]	7.38 ± 0.48
ATTTAAATTATAAAATGTACATTTAACAAATTTTAT [XGTACX_site770]	7.65 ± 0.49
TGTAATCTGGAGAAAAGTACACAGTATCTGGTAGCT [XGTACX_site2039]	7.76 ± 0.51
TTTAATTATTAAATGGTGCACTTGAAATATAAAAAT	11 ± 0.45
CTTTTAATGGTGTAAAGTACTTTCTTAAGGTTCAAA [XGTACX_site8423]	7.87 ± 0.47
ATATATGGGGCGCAGGAAAAGAGTTTTGGAAATAAA [CACACA_negctrl_site1265]	8.24 ± 0.51
AAGTTATATAAAGGAACACACATTTGATTTTATTTT [CACACA_site6814]	7.55 ± 0.64
TATACAACGTTAAGCACACACAAAAAAAATTTAATA [CACACA_site3086]	8.61 ± 0.2
AAAAAAAAAAAGAAGGAAACATTTGACCAAAAATAT [GTGCAC_negctrl_site404]	7.82 ± 0.67
ATTCTATACATATATATACACACGTAGTTTCTATTT [CACACA_site2223]	7.83 ± 0.65
GTTAATATACTTAATACACACACGAATATATATAAA [CACACA_site1181]	8.04 ± 0.45
ATATACTTACATATTACACACAATATTTTTAAATGT [CACACA_site3627]	7.95 ± 0.59
AAAGTAAAAAAAAAAACATGCACATATTTACTTTAT [TGCATGCA_site849]	8.14 ± 0.79
TTTTTTTTGGTTTTCATGCACACAATTTATAAATCT [CACACA_site3107]	8.9 ± 0.54
AAGGGAATATACCTTACACACAAAAATGCAGATATA [CACACA_site1451]	7.66 ± 0.52
CTAATCAAAATAAATTAACACACAATTTTAATATTG [CACACA_site7887]	7.42 ± 0.57
TTCGCTGTTTTAATTAGTACTTATATATAATATTAT [XGTACX_site1149]	8.21 ± 0.57

Sequence	gcPBM binding intensity (ln)
TATTGATATATATATATATATATATGTATATACTTA [GTGCAC_negctrl_site111]	7.88 ± 0.4
CTAAACCTTTTGAGCACACATATATATATATATATA [CACACA_site1782]	9.53 ± 0.45
TTTTTATTTTCATATGTGCACTTATATATATATATA	10.82 ± 0.099
TTTTTATATAAGAAAAAATTATAACAATTTGTTAAT [XGTACX_negctrl_site422]	7.28 ± 0.46
TATTATTATATATATAGTACATAAAATATAAAAAAA [XGTACX_site2060]	7.79 ± 0.38
ATGTCACAATTTTTCACACACAAAATTTAAATACAT [CACACA_site5168]	8.04 ± 0.59
TAATTATGCGGACACACACACACACCCAACTAAAAA [CACACA_site5427]	8.16 ± 0.34
GCATTATTATATATTTGTACATATTTTTTTTTAAAA [XGTACX_site5436]	8.34 ± 0.35
TTTTTTTTTTAAATGTGTCCTCATTATAATATATGT [XGTACX_site5331]	7.94 ± 0.31
TTTTTTAAATTATATTATAGCAAATAAATATTAAAA [CACACA_negctrl_site1655]	7.39 ± 0.47
AATAAAACATCATCATGTACAAAATTCGTCTTTGTA [XGTACX_site4821]	7.5 ± 0.51
AATTATATATAAAGAAGTACTATTTCAAGGAGTTTT [XGTACX_site3837]	7.69 ± 0.57
TCAAATTTTCAACATTGTACATAAATGTATAAATAT [XGTACX_site6042]	7.57 ± 0.36
CAAAATATATATGACACACACAAAAAAAGTATATTA [CACACA_site1589]	7.79 ± 0.42
TATTTGTTCTGATCCTTTTATTCAACTTTTTTTTTT [CACACA_negctrl_site978]	7.82 ± 0.42
GGCTAAAAGTTGCACACACACAAAAAAAAAAAAAAA [CACACA_site7531]	8.72 ± 0.11
ACCTTAATTATAATAACACACGAAAAGTGGACACAT [CACACA_site1750]	8.49 ± 0.41
TATTATAGTCCGACTTTTTAATTTCTTTATTGTTTT [CACACA_negctrl_site1381]	7.53 ± 0.6
TGAATATTCATATGCACACAAATTAATATACATAAT [CACACA_site442]	8.675 ± 0.021
TTTTATTTTTAAAATTGTACATTATTATTGTTATTT [XGTACX_site1439]	7.58 ± 0.53
AAATTTTAATTAGACTGTACACATTTTAGAATAATT [XGTACX_site4819]	7.67 ± 0.49
TTTTATGTTTTAAAATGTACGTGTCAATGAATAAGT [XGTACX_site6239]	8.57 ± 0.42
